Results as given in patent US20170342499A1, “GENOMIC CLASSIFIER THAT PREDICTS RESPONSE TO MULTI-KINASE INHIBITOR TREATMENT INTRODUCTION” (Centre Léon-Bérard, priority 2014, published 2017).

Key:
advanced solid tumors [1] = assay: Progression free survival of patients treated with MTKI; format: in vivo, human; conditions: one patient with thyroid carcinoma, 1st line MTKI, TTC=3
Procedure: The association between SCNAs and categorical variables was tested using the Mann-Whitney U-test. Association between categorical variables was assessed using Chi-square test. All p-values were two-sided. Survival curves were plotted using the Kaplan Meier method and compared using a log rank test. Statistical analysis was conducted using the SPSS 19.1 Package (SPSS, IBM France). Table 4: List of analysed mutations status by NGC (Ion torrent).

advanced solid tumors [2] = conditions: discovery cohort, 13 mCRC patients, first-line MTKI

Row | SMILES | PFS (advanced solid tumors [1]) [months] | patients with progressive disease ≦8 weeks (regorafenib resistant) (advanced solid tumors [2]) | patients with stable disease or objective response at 8 weeks (regorafenib sensitive) (advanced solid tumors [2])
1 | COc1cc2c(Nc3ccc(Br)cc3F)ncnc2cc1OCC1CCN(C)CC1 [Vandetanib] | 19 |  | 
2 | CNC(=O)c1cc(Oc2ccc(NC(=O)Nc3ccc(Cl)c(C(F)(F)F)c3)c(F)c2)ccn1 [Regorafenib] |  | 7 | Six
